The whole screen tested about 73,000 compounds, of which about 1,800 (2.5%) were called active. The shares of active, inactive and inconclusive entries below differ from those in the screen. Calls come from the whole dose curve; as a rule, active = well fitted activation curve with a large enough effect; inconclusive = small, poorly fitted or top-dose-only effect; inactive = no such curve, though single readings can be large or run the other way. No potency is given beside an inconclusive call; the fits are too rough.
Experiment: qHTS Assay for Agonists of the Thyroid Stimulating Hormone Receptor: Activators of Intracellular cAMP Concentrations in Parental HEK 293; note: nearly all actives have a fitted effect of over 55% in size; for activation: % of control where 0% means no effect
Details: parental HEK293 CNG cAMP sensor, membrane potential fluorescence; activation: at 57.1 µM (top of the series) unless noted
Procedure, shortened: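 Counterscreen for endogenous-receptor signalling: CNG-channel HEK 293 cells report cAMP rise by membrane depolarization. After 60 min dye equilibration with 100 uM RO 20-1724, compounds incubated 30 min before bottom-read fluorescence at 590 nm.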
Potency is the fitted concentration of half-maximal effect; tags give direction and shape of the fitted curve.

SMILES | Potency | activation
FC(F)C(F)(F)C1=CC(c2cccs2)=NCCN1 | inactive | 
Cc1cc(-c2nsc(=O)o2)c(S(C)(=O)=O)s1 | inconclusive [activator, single point] | 
Cc1ccc(-n2c(C)c3c(C)nnc(C)c3c2C)cc1 | inconclusive [activator, single point] | 
C=CCOC(=O)C(C#N)c1nc2ccccc2nc1N1CCCC1 (stereo not given) | inactive | 
COc1ccc(-c2nc3cnc(N4CCN(C)CC4)nc3n(C3CC3)c2=O)cc1 | inconclusive [activator, single point] | 
CCC12CN(C(=O)c3ccc(OC)cc3)CC(CC)(CN(C(=O)c3ccc(OC)cc3)C1)C2=O | inconclusive [activator, partial curve] | 
COc1ccccc1NC(=O)CSc1nnc(Cc2cccn2C)n1CCc1ccccc1 | active: 20 µM | 
Cc1nc2ccccc2n1CCC(=O)Nc1cccc(F)c1 | inconclusive [activator, partial curve] | 
O=C1NCCCC1C(=O)N1CCN(C(=O)C2CCCNC2=O)CC1 (stereo not given) | inactive | 
CCOc1ccc(Br)cc1S(=O)(=O)Nc1ccccc1N1CCOCC1 | inconclusive [activator, partial curve] | 
O=C(Nc1ccccc1-c1ccccc1)c1ccco1 | inconclusive [activator, partial curve] | 
CC(C)=CCC/C(C)=C/CO/N=C1/C[C@@H](O)[C@@H](O)[C@@H]2[C@@H]3C(=O)N(C4CCCCC4)C(=O)[C@H]3CC[C@@H]12 |  | inactive: -12% [at 11.4 µM]
Cc1ccc(NC(=O)CN(C)S(=O)(=O)c2cccs2)cc1F | inconclusive [activator, single point] | 
Cn1cccc1Cc1nnc(SCC(=O)Nc2ccc3c(c2)OCO3)n1CCc1ccccc1 | inactive | 
Cc1cc(C)n(-c2nc3ccccc3c3nc(C)nn23)n1 | inactive | 
Cc1ccc(-n2c3c(cc(C(=O)NCCCN4CCOCC4)c2=O)C(=O)CC(C)(C)C3)cc1 | inconclusive [activator, single point] | 
NC(=O)SCC(=O)Nc1ccc2ncccc2c1 |  | inactive: -36.4% [at 11.4 µM]
CC1(C)CC(=O)C2=C(C1)OC(/N=C/N1CCOCC1)=C(C#N)C2c1ccccc1 (stereo not given) | inconclusive [activator, single point] | 
NCCC[C@@H](CC(=O)N[C@@H]1CCCC[C@H]1C(=O)N[C@H](CC(=O)N[C@@H](CCC(=O)O)CC(=O)O)Cc1ccccc1)NC(=O)C[C@H](Cc1ccccc1)NC(=O)[C@@H]1CNCC[C@H]1N | inactive | 
c1ccc(C(c2nnnn2C2CCCCC2)N2CCc3ccccc3C2)nc1 (stereo not given) | inactive | 
CC(C)(CCC(C)(C)c1ccccc1)c1ccccc1 |  | inactive: 0.634% [at 11.4 µM]
CCC(=O)Nc1cc(-c2nn(C)c(=O)c3ccccc23)ccc1OC | inconclusive [activator, single point] | 
CC(C)(C)c1ccc(-c2conc2N)cc1 | inactive | 

SMILES | Potency | activation
COc1cccc(-c2nnc(SCC(=O)N(C(C)C)C(C)C)o2)c1 | active: 15.8 µM | 
CCOC(=O)N1CCN(C(=O)C2CC(c3cc(OC)ccc3OC)=NO2)CC1 (stereo not given) | inconclusive [activator, single point] | 
Cc1ccccc1-c1noc(-c2ccc(O)cc2)n1 |  | inactive: -3.36% [at 11.4 µM]
CCN(CC)CCOC(=O)c1cccc(Br)c1 | inconclusive [activator, single point] | 
O=C(NCc1cccs1)C1CCCN(c2ncccn2)C1 (stereo not given) | inconclusive [activator, single point] | 
COc1ccccc1-c1nc(S(=O)(=O)c2ccc(Cl)cc2)c(N(C)C)o1 | inconclusive [activator, single point] | 
O=C(O)[C@H]1CCCC[C@@H]1c1c2ccc(=O)c(O)c-2oc2c(O)c(O)ccc12 | inconclusive [activator, single point] | 
COCC(=O)N1CCC2(CCCN(Cc3ccccc3)C2)CC1 | inconclusive [activator, single point] | 
CCC(c1nnnn1Cc1ccco1)N(Cc1ccccc1OC)Cc1cc2cc(C)ccc2[nH]c1=O (stereo not given) | inconclusive [activator, single point] | 
NC(=O)COc1ccc2c3c(c(=O)oc2c1)CCCCC3 | inactive | 
CC1CC(N(C(=O)C2CC2)c2ccccc2)c2ccccc2N1C(=O)C1CC1 (stereo not given) | inconclusive [activator, partial curve] | 
CCN(CC)C(=O)C1CCCN(C(=O)Nc2ccc3nsnc3c2)C1 (stereo not given) | inconclusive [activator, single point] | 
COc1ccc(OC)c(S(=O)(=O)n2cnc3cc(C)c(C)cc32)c1 | inconclusive [activator, single point] | 
O=C1CC(c2ccc3c(c2)OCO3)Sc2nc3ccccc3n21 (stereo not given) | inconclusive [activator, partial curve] | 
Nc1ccc2nn(-c3cccc4ccccc34)nc2c1 | inactive | 
FC(F)(F)c1ccccc1-c1nccc(NCc2cccs2)n1 | inconclusive [activator, partial curve] | 
CCOc1cccc(C(=O)N(Cc2ccc(F)cc2)C2CCS(=O)(=O)C2)c1 (stereo not given) | inactive | 
CC1Cc2ccccc2N1C(=O)Cn1nnc(-c2ccccc2NC(=O)C2CCC2)n1 (stereo not given) | inconclusive [activator, full curve] | 
COc1ccccc1-c1cncnc1N(C)Cc1ccco1 | inactive | 
Cc1ccc(CS(=O)(=O)CCC(=O)NCCN2CCCC2)cc1 | inconclusive [activator, partial curve] | 
COc1ccc(OC)c(S(=O)(=O)Nc2ccc(O)c(Sc3ncn[nH]3)c2)c1 | inconclusive [activator, single point] | 
COC(=O)[C@@]1(Cc2ccc(F)cc2)[C@H]2c3cc(C(=O)N(C)C)n(Cc4cc(C)n(C)n4)c3C[C@H]2CN1C(=O)c1ccccc1 | inconclusive [activator, partial curve, poor fit] | 
